The values below come from PubChem BioAssay AID360 (National Center for Advancing Translational Sciences (NCATS), 2006).

The campaign covered roughly 48,000 compounds. About 550 (1.1%) were called active. Roughly 4% stayed inconclusive and do not appear here. Rule as the data show it: active = potency below about 15 µM; inconclusive = mostly about 16 µM to 33 µM; inactive = weaker than that. The list shows a part of the results.
Potency is read from the fitted curve at half-maximal effect.

Chain of UniProt P04062 (P04062 whole entry, looked up): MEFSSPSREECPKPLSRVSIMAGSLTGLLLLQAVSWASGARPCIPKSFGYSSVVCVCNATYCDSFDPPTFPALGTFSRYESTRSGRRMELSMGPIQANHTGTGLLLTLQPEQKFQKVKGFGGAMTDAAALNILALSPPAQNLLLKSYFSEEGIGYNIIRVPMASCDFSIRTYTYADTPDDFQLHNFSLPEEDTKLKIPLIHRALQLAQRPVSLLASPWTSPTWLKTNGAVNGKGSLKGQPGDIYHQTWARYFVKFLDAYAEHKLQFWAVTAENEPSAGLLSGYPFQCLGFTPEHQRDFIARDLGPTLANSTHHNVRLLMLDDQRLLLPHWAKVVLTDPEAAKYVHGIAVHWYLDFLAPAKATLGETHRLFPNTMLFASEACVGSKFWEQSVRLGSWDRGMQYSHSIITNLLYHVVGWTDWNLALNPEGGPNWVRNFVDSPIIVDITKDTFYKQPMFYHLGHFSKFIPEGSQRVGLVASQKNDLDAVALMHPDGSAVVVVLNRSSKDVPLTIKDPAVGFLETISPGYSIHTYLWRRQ

The target of this experiment is Lysosomal acid glucosylceramidase (Homo sapiens) (UniProt P04062). In words: Glucocerebrosidase.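 Also: the screen sought inhibitors.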 The following applies: purified enzyme, resorufin glucoside fluorescence (screen aimed at inhibitors), 20 min. The procedure, abridged:
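Wild-type enzyme at 0.2 nM final in 50mM citric acid/KH2PO4, 10mM sodium taurocholate, 0.01% tween-20, pH 5.9, with resorufin beta-D-glucopyranoside at 30 uM final. Compounds titrated, 20 min at RT, red fluorescence read; AC50 from titration.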
With `Cc1ccc2cc3c(nc2c1)N(Cc1ccco1)CC3`, the Potency was inactive: > 76.9 µM.

Regarding `CSC1=NC(NCCCO)c2c(sc3c2CC(C)(C)OC3)N1` (configuration not stated), the Potency was inactive: > 76.9 µM.

Consider `CCc1nc(C)cc(N)c1OCc1ccccc1`, for which the Potency was inactive: > 76.9 µM.

With `CCOC(=O)N1CCN(C(=O)Cn2nc(C)c3sc4ccccc4c3c2=O)CC1`, the Potency was inactive: > 76.9 µM.

As to `CN(C)C(=O)CSc1nnc(CCCCCNC(=O)OC(C)(C)C)o1`, the Potency is inactive: > 76.9 µM.

As to `Cc1ccc(-c2csc3ncn(/N=C/N(C)C)c(=O)c23)o1`, the Potency is inactive: > 76.9 µM.

As for `COc1ccc(-c2nn3c(-c4ccncc4)nnc3s2)cc1OC`, the Potency is inactive: > 76.9 µM.

Consider `CCCCCCOc1cccc(N)c1`, for which the Potency was inactive: > 76.9 µM.

`CCCCOc1ccc(-c2nnn(CCC(=O)N3CCOCC3)n2)cc1`: the Potency is inactive: > 76.9 µM.

As for `CNC(=O)OCc1cccc(COC(=O)NC)n1`, the Potency was inactive: > 76.9 µM.

Regarding `O=C(NCCc1ccc(Cl)cc1)C1CCC(=O)N1C1CCCC1` (configuration not stated), the Potency is inactive: > 76.9 µM.

With `CCn1c(=O)c2c3c(sc2n(C)c1=O)CCC3`, the Potency is inactive: > 76.9 µM.

As to `CC(C)(O)C#Cc1ccc(C(=O)NCc2cccs2)s1`, the Potency is inactive: > 15.4 µM.

Regarding `Cc1oc2c(CN(C)C)c(O)ccc2c(=O)c1-c1ccc2ccccc2n1`, the Potency was inactive: > 76.9 µM.

On to `COC(=O)c1cc2oc3ccccc3c2n1Cc1ccccn1`, for which the Potency is inactive: > 76.9 µM.

Take `COC(=O)c1sccc1NC(=O)C1CC2CCC1C2` (configuration not stated): the Potency is inactive: > 76.9 µM.

On to `COc1ccc(-c2nnc(SCc3nnc(-c4ccccc4)o3)n2C)cc1OC`, for which the Potency is inactive: > 76.9 µM.

As for `CC(=O)NC(CCS(C)(=O)=O)C(=O)Nc1nccs1` (configuration not stated), the Potency was inactive: > 76.9 µM.

As to `O=C(NCc1cccs1)c1nn2cccnc2c1Cl`, the Potency is inactive: > 76.9 µM.

Take `CNC(=O)/C(=N\O)c1ccccc1`: the Potency was inactive: > 76.9 µM.

Regarding `CCOC(=O)C1CCN(C(=O)c2ccc(Cl)c(Cl)c2)CC1`, the Potency is inactive: > 76.9 µM.

For `CCCn1c(CNc2ccccc2O)nc2ccccc21`, the Potency was inactive: > 76.9 µM.

Regarding `CC1CCN(CCCNC(=O)c2n[nH]c(=O)c3ccccc23)CC1`, the Potency is inactive: > 76.9 µM.

On to `Cn1c(=O)n(Cc2ccccc2)c(=O)c2c1nc1n2CCS1`, for which the Potency was inactive: > 76.9 µM.

On to `Cc1cc(N2CCC(C(=O)NC3CCCCC3)CC2)nc(-c2ccccc2)n1`, for which the Potency entry was “inactive”.

Regarding `CCOc1ccc(NC(=O)Nc2ccc3c(c2)nnn3C)cc1`, the Potency is inactive: > 76.9 µM.

Take `CCn1c(SCC(=O)c2cc(OC)ccc2OC)nnc1C1CC1`: the Potency is inactive: > 76.9 µM.

In the case of `c1ccc(CCc2nn3c(Cn4nnc5ccccc54)nnc3s2)cc1`, the Potency was inactive: > 76.9 µM.

With `CCOC(=O)CSc1nc2c(c(=O)n(C)c(=O)n2C)n1CCCc1ccccc1`, the Potency is inactive: > 76.9 µM.

For the molecule `Cn1c(=O)cc(OCC(=O)N2CCCc3ccccc32)c2ccccc21`, the Potency is inactive: > 76.9 µM.

As for `CCOC(=O)C(C(C)=O)c1nc(C)nc2c1nnn2Cc1ccccc1Cl` (configuration not stated), the Potency was inactive: > 76.9 µM.

As for `CCOc1ccc(CCNC(=O)C2CCCN(c3nn4c(=O)cc(C)nc4s3)C2)cc1OCC` (configuration not stated), the Potency was inactive: > 76.9 µM.

As for `O=C(Nc1ccccn1)[C@@H]1CCC(=O)N1C(=O)OCc1ccccc1`, the Potency was inactive: > 76.9 µM.

On to `CCOC(=O)N1CCN(C(=O)Cc2ccc(-n3c(=O)[nH]c4ccccc4c3=O)cc2)CC1`, for which the Potency is inactive: > 76.9 µM.

As to `O=C(Nc1cccnc1)c1cccs1`, the Potency is inactive: > 76.9 µM.

`Cc1ccc(S(=O)(=O)NC(C)C(=O)Nc2ccc(C(N)=O)cc2)cc1` (configuration not stated): the Potency was inactive: > 76.9 µM.

Consider `O=c1c2ccccc2c(/C=N/c2ncn[nH]2)c(O)n1Cc1ccccc1`, for which the Potency was inactive: > 76.9 µM.

As for `COc1ccc(OC(C)C(=O)N2CCN(c3ccccn3)CC2)cc1` (configuration not stated), the Potency entry was “inactive”.

For `COc1cc(Cl)c(C)cc1NC(=O)CSc1nc2ccccc2o1`, the Potency entry is “inactive”.

Regarding `CCn1cc(C(=O)NCc2ccco2)c(=O)c2cc(S(=O)(=O)N3CCC(C)CC3)ccc21`, the Potency is inactive: > 76.9 µM.

Regarding `COC(=O)[C@@H](NC(=O)Nc1ccc(OC)cc1)C(C)C`, the Potency was inactive: > 76.9 µM.

Consider `O=C(N1CCN(Cc2ccccc2)CC1)C12CC3CC(CC(C3)C1)C2`, for which the Potency was inactive: > 76.9 µM.

Consider `CCCc1[nH]nc2c1C(c1ccc(OCCN3CCOCC3)c(OC)c1)C(C#N)=C(N)O2` (configuration not stated), for which the Potency is inactive: > 76.9 µM.

In the case of `Cc1ccc(C)c(-n2c(Cc3cc(=O)[nH]c(=O)[nH]3)nnc2SCC(=O)NCC2CCCO2)c1` (configuration not stated), the Potency was inactive: > 76.9 µM.

In the case of `O=C(COC(=O)c1ccccc1Nc1ccccc1)NCc1ccco1`, the Potency is inactive: > 76.9 µM.

Turning to `O=C1NC(c2ccccc2)(C(F)(F)F)C(=O)N1Cc1cccnc1` (configuration not stated), the Potency was inactive: > 76.9 µM.

In the case of `CCNc1nc(NC(C)(C)C)nc(N(C#N)CC)n1`, the Potency was inactive: > 76.9 µM.

Turning to `Cn1c(CC2C(=O)Nc3ccc(Br)cc32)nc2ccccc2c1=O` (configuration not stated), the Potency is inactive: > 76.9 µM.

Take `Cc1cc(C)n2nc(SCC(=O)N(C(C)C)C(C)C)nc2n1`: the Potency is inactive: > 76.9 µM.

As for `C=CCn1c(C)cc(C(=O)CSc2nc3ccccc3c(=O)[nH]2)c1C`, the Potency was inactive: > 76.9 µM.

For the molecule `C=CCC(NCc1ccco1)c1ccc(OC)cc1OC` (configuration not stated), the Potency is inactive: > 76.9 µM.

`COc1ccc(N2CCCCn3c2nc2c3c(=O)n(C)c(=O)n2C)cc1`: the Potency is inactive: > 76.9 µM.

As for `Cc1c(C(O)CN2CCC(C(N)=O)CC2)c2ccccc2n1C` (configuration not stated), the Potency is inactive: > 76.9 µM.

As to `COCCNC(=O)CN(C(=O)CCC(=O)Nc1ccccn1)c1ccc(F)cc1`, the Potency is inactive: > 76.9 µM.

Take `Cc1cc2ccccc2c(=O)n1CC(=O)Nc1ccc2c(c1)OCCO2`: the Potency is inactive: > 76.9 µM.

As for `O=C(COC(=O)c1cccs1)NCc1ccc2c(c1)OCO2`, the Potency is inactive: > 76.9 µM.

In the case of `Cn1c(CC(=O)Nc2ccccc2)nnc1SCCOc1ccccc1`, the Potency was inactive: > 76.9 µM.

Regarding `Cc1ccc(C)c2[nH]c(=O)c(CN(CCN3CCOCC3)Cc3nnnn3CC3CCCO3)cc12` (configuration not stated), the Potency was inactive: > 76.9 µM.

`Cc1cccc(NCN2C(=O)c3ccncc3C2=O)n1`: the Potency is inactive: > 76.9 µM.

Take `COc1ccc(OCC(=O)Nc2ncc3c(n2)CC(C)(C)CC3=O)cc1`: the Potency was inactive: > 76.9 µM.

Regarding `Cc1ccc(NC(=O)COC(=O)c2ccnn2C)cc1`, the Potency was inactive: > 76.9 µM.

With `CCOC(=O)C1CCN(C(=O)CN(c2ccc3c(c2)OCO3)S(C)(=O)=O)CC1`, the Potency is inactive: > 76.9 µM.

For `Cc1cc(=O)oc2cc(OCC(O)CN3CCN(c4ccccc4)CC3)ccc12` (configuration not stated), the Potency was inactive: > 76.9 µM.

With `O=C(NC(c1ccccc1)c1ccccc1)N1CCN(CCO)CC1`, the Potency was inactive: > 76.9 µM.

On to `CCOc1cc(NC(=O)c2ccco2)c(OCC)cc1NC(=O)CCC(=O)NCc1cccnc1`, for which the Potency is inactive: > 76.9 µM.

Turning to `CCn1c(SCC(=O)c2c[nH]c3ccccc23)nnc1-c1cccs1`, the Potency is inactive: > 76.9 µM.

Turning to `Cc1nn(Cc2ccc(Br)cc2)c(C)c1NC(=O)c1nn(C)cc1Cl`, the Potency was inactive: > 76.9 µM.

Consider `Oc1c(C(Nc2ccccn2)c2ccccn2)ccc2cccnc12` (configuration not stated), for which the Potency was inactive: > 76.9 µM.

Consider `Cc1cc(C)nc(NC(=O)CSc2nnnn2-c2ccccc2)n1`, for which the Potency is inactive: > 76.9 µM.

On to `CCOCC(=O)Nc1cccc(Br)c1`, for which the Potency was inactive: > 76.9 µM.

Regarding `COC(=O)c1cc(NC(=O)CN2CCC(C(N)=O)(N3CCCCC3)CC2)cc(C(=O)OC)c1`, the Potency is inactive: > 76.9 µM.

With `O=C(Cn1cnc2c(cnn2-c2ccc(F)cc2)c1=O)N1CCN(c2ccccc2)CC1`, the Potency is inactive: > 76.9 µM.

On to `COc1ccc(N(CC(=O)Nc2ccc(OC)c(Cl)c2)S(=O)(=O)c2c(C)noc2C)cc1`, for which the Potency is inactive: > 76.9 µM.

For the molecule `COc1ccc(OC)c(S(=O)(=O)Nc2ccccc2C(=O)O)c1`, the Potency was inactive: > 76.9 µM.

Regarding `c1ccc2ncc(-n3cnnn3)cc2c1`, the Potency was inactive: > 76.9 µM.

Regarding `COCCNC(=O)c1ccccc1NC(=O)c1ccc(OC)c(OC)c1`, the Potency was inactive: > 76.9 µM.

In the case of `Cn1cnnc1SCC(=O)N1c2ccccc2-c2c(ssc2=S)C1(C)C`, the Potency is inactive: > 76.9 µM.

Take `O=C(CSc1oc(-c2ccco2)nc1S(=O)(=O)c1ccccc1)NCC1CCCO1` (configuration not stated): the Potency is inactive: > 76.9 µM.

On to `N#Cc1cnn(Cc2ccccc2)c1/N=C/N1CCOCC1`, for which the Potency is inactive: > 76.9 µM.

With `O=C(c1ccc(Cl)c(Cl)c1)N(Cc1ccco1)c1ccc(O)cc1`, the Potency result was “inactive”.

In the case of `Cc1ccccc1Cn1cc(NC(=O)c2cc(-c3cccs3)on2)cn1`, the Potency is inactive: > 76.9 µM.

Regarding `O=C(Nc1cccc(-c2nc3ccccc3[nH]2)c1)c1cccc(NC(=O)c2ccco2)c1`, the Potency entry is “inactive”.

As to `C=CCn1c(CCC(=O)O)ccc1-c1ccc(OC)cc1`, the Potency was inactive: > 76.9 µM.

As for `COc1ccc(COn2c(=O)c(C)[n+]([O-])c3ccccc32)cc1OC`, the Potency was inactive: > 76.9 µM.

Regarding `O=C(Nc1ccc(N2CCN(C(=O)c3ccco3)CC2)cc1)c1ccccc1F`, the Potency was inactive: > 76.9 µM.

For the molecule `COc1ccc(Br)cc1-c1nc(C)c(C(C)=O)n1O`, the Potency was inactive: > 76.9 µM.

Take `C=C(c1ccc(O)cc1)c1ccc(O)cc1`: the Potency was inactive: > 76.9 µM.

Consider `Cc1nnc(NC(=O)c2ccc(-c3cccc(C(F)(F)F)c3)o2)s1`, for which the Potency is inactive: > 76.9 µM.

On to `Cc1ccccc1Nc1nc(N)nc(COC(=O)C(NC(=O)c2ccco2)C(C)C)n1` (configuration not stated), for which the Potency was inactive: > 76.9 µM.

For `O=C(Oc1ccc2c(c1)OCO2)c1ccncc1`, the Potency was inactive: > 76.9 µM.

As to `O=C(Nc1cccc(C(=O)N2CCOCC2)c1)c1ncn[nH]1`, the Potency was inactive: > 76.9 µM.

With `Cc1ccc(S(=O)(=O)Nc2ccc(S(=O)(=O)N3CCCC3)cc2)cc1`, the Potency was inactive: > 76.9 µM.
